# Measured values as given in PubChem BioAssay AID485294 (National Center for Advancing Translational Sciences (NCATS), 2010).
# In all, about 370,000 compounds went through this assay and about 150 (0.041%) were called active. Inconclusive means that the source gave no clear call. Such entries were picked first, then a sample of the others. Calls come from the whole dose curve; as a rule, active = well fitted inhibition curve with a large enough effect; inconclusive = small, poorly fitted or top-dose-only effect; inactive = flat fitted curve, though single readings scatter. No potency is given beside an inconclusive call; the fits are too rough.
# Biological target: Beta-lactamase (Escherichia coli (strain K12)) (UniProt P00811)
# Test: qHTS Inhibitors of AmpC Beta-Lactamase (assay with detergent); note: nearly all actives have a fitted effect of over 25% in size;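 for activity change, negative = inhibition: 0% = no-compound wells and -100% = no-enzyme wells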
# Settings: AmpC hydrolysis of nitrocefin, absorbance 480 nm, 0.01% Triton; activity change, negative = inhibition: at 114 µM (top of the series)
# Method in brief: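 20 mM phosphate pH 7.0 + 0.01% (detergent screen) or 0.0001% Triton X-100; 5.3 nM AmpC reagent; cpd preinc 15 min RT; nitrocefin (800 uM stock) to start; A480 q20 s × 4 min; Activity was normalised to no-enzyme and no-compound control wells.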
# Potency is the fitted concentration of half-maximal effect; tags give direction and shape of the fitted curve.
# Sequence of UniProt P00811 (P00811 whole entry, looked up): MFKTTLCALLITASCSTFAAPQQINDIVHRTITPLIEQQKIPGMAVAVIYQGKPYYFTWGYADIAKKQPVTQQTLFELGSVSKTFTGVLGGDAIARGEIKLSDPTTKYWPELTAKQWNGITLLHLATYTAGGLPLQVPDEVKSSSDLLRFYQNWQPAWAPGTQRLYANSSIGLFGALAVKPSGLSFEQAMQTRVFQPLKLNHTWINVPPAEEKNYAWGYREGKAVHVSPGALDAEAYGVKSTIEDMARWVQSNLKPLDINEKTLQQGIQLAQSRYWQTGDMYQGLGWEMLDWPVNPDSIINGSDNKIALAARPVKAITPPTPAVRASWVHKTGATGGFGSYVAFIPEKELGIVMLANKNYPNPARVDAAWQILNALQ
SMILES,"activity change, negative = inhibition",Potency
CCOC(=O)c1c(C)c(C)n(Cc2cccc(OC)c2OC)c1C,inactive: -18.2%,
CN(CC(=O)Nc1ccccc1C(F)(F)F)C(=O)COc1cccnc1[N+](=O)[O-],inactive: -0.172%,
CCOc1cccc(C(=O)NC(=S)Nc2ccc3c(c2)OCCO3)c1,inactive: 8.08%,
Cc1ccc(C(=O)N2CCC(C(=O)c3ccc(Cl)cc3)CC2)cc1,,"inconclusive [inhibitor, full curve, poor fit]"
Oc1ccccc1Cn1nnc2ccccc21,,"inconclusive [inhibitor, partial curve, poor fit]"
CCN(c1ccc(C)cc1C)S(=O)(=O)c1nnc(NC(=O)c2ccccc2OC)s1,inactive: 22.3%,
CCN(Cc1ccccc1)c1ccc(N=Nc2nn(C)c(C)c2[N+](=O)[O-])cc1,,"inconclusive [inhibitor, full curve]"
CC1(C)CC(=O)c2cc(OCC(=O)NCCCN3CCN(c4ccccc4F)CC3)ccc2O1,,"inconclusive [inhibitor, full curve]"
COC(=O)c1ccccc1Nc1ccccc1,inactive: -11%,
CCN(CC)C(=O)CSc1nnc(COc2cccc(C)c2)n1C,inactive: -0.0582%,
CN(CCCNC(=O)c1cn(C)c2ccc(S(=O)(=O)N(C)C)cc2c1=O)c1ccccc1,,"inconclusive [inhibitor, full curve, poor fit]"
O=C(CN1C(=O)C(=O)N(Cc2ccccc2)C1=O)c1ccc[nH]1,,"inconclusive [inhibitor, full curve, poor fit]"
CC(=O)CCSc1nnc(-c2cccc(S(=O)(=O)N3CCOCC3)c2)o1,,"inconclusive [inhibitor, full curve, poor fit]"
CCOC(=O)c1ccc2c(c1)N(CC(=O)Nc1ccc(CC)cc1)C(=O)c1ccccc1S2,inactive: 19.6%,
Cc1cc(N/N=C/c2cccc(Cl)c2)nc(NCc2ccccc2)n1,,"inconclusive [inhibitor, partial curve]"
Cc1ccc(Nc2c(-c3ccc(N4CCOCC4)cc3)nc3ncccn23)cc1C,,"inconclusive [inhibitor, full curve, poor fit]"
O=C(CNC(=O)c1ccc(OC(F)F)cc1)NCc1ccccn1,,"inconclusive [inhibitor, full curve, poor fit]"
COc1ccc(C2(C)CC(C)(C)Nc3ccccc32)cc1 (stereo not drawn),inactive: 8.83%,
CCCN(CCC)CCCNC(=O)c1cn(CC)c2ccc(S(=O)(=O)N3CCc4ccccc4C3)cc2c1=O,,inactive
COc1cccc(NS(=O)(=O)c2ccc(OC)c(OC)c2)c1,,"inconclusive [inhibitor, full curve, poor fit]"
O=C(NCCc1cccc(Cl)c1)c1ccc2c(c1)OCO2,inactive: 0.803%,
CCC(=O)Nc1ccc(-c2csc(C)n2)cc1,,"inconclusive [inhibitor, full curve, poor fit]"
COc1ccc(N2CC(O)(c3ccc(OC(F)F)cc3)[N+]3=C2CCCC3)cc1 (stereo not drawn),,"inconclusive [inhibitor, full curve, poor fit]"

SMILES,"activity change, negative = inhibition",Potency
Nc1c(C(=O)c2ccccc2)oc2ccccc12,inactive: -8.62%,
O=C(COc1ccc(S(=O)(=O)N2CCOCC2)cc1)NCCc1ccccc1,,"inconclusive [inhibitor, partial curve, poor fit]"
COc1cccc(N2C(=O)CSC23C(=O)N(CC(=O)NCc2ccc(C)cc2)c2ccccc23)c1 (stereo not drawn),inactive: -0.54%,
COc1cc(C(O)P(=O)(OC(C)C)c2ccc(N(C)C)cc2)cc(OC)c1OC (stereo not drawn),,"inconclusive [inhibitor, full curve, poor fit]"
Cc1ccc(Cn2c(CN3CCOCC3)nc3c2c(=O)[nH]c(=O)n3C)cc1,,"inconclusive [inhibitor, full curve, poor fit]"
O=C(CC1SC(=Nc2ccc3c(c2)OCCO3)NC1=O)Nc1ccc(F)cc1F (stereo not drawn),,"inconclusive [inhibitor, single point]"
CCN(C(=O)CN1C(=O)NC(c2ccccc2)(c2ccc(C)c(C)c2)C1=O)C1CCS(=O)(=O)C1 (stereo not drawn),inactive: -8.07%,
CCOc1ccc(N2C(=O)C3CCCN3C2=O)cc1 (stereo not drawn),,"inconclusive [inhibitor, full curve, poor fit]"
Cc1nc2c(-c3ccccc3)c(C)nn2c(C)c1CCC(=O)NCc1ccco1,,"inconclusive [inhibitor, full curve]"
c1ccc(-c2nnnc3ccccc23)cc1,,"inconclusive [inhibitor, partial curve, poor fit]"
O=C(c1ccccc1)N1CCN=C1c1ccccc1,,"inconclusive [inhibitor, full curve, poor fit]"
Cc1c(C(=O)Nc2ccccn2)oc2ccccc12,,"inconclusive [inhibitor, full curve, poor fit]"
CCn1nnc(-c2ccccc2NC(=O)c2cc(OC)cc(OC)c2)n1,,"inconclusive [inhibitor, partial curve]"
COc1cccc(-n2nnnc2SCC(=O)Nc2ccc3c(c2)OCCO3)c1,,"inconclusive [inhibitor, full curve, poor fit]"
COc1cccc(Nc2ncnc3nc[nH]c23)c1,,"inconclusive [inhibitor, partial curve]"
COc1ccccc1NS(=O)(=O)c1cccc(C(=O)NN=C2CCCC2)c1,inactive: 4.08%,
Cc1ccc(-c2cc(=O)c3cc(C)ccc3[nH]2)cc1,,"inconclusive [inhibitor, full curve, poor fit]"
CC/C(=N\NC(=O)c1c[nH]c2ccccc12)c1cccs1,,"inconclusive [inhibitor, partial curve, poor fit]"
CCOc1ccc(C2CC(c3c(O)c4ccccc4oc3=O)=NN2c2ccccc2)cc1OC (stereo not drawn),,"inconclusive [inhibitor, single point]"
Cc1nc2ccccn2c1C(=O)NNC(=S)Nc1ccc(Cl)cc1,,"inconclusive [inhibitor, partial curve]"
Cc1ccc(C)c(-c2csc(N/N=C/c3ccco3)n2)c1,,"inconclusive [inhibitor, single point]"
CCn1c(SCC(=O)Nc2ccccc2-c2ccccc2)nnc1-c1ccoc1C,,"inconclusive [inhibitor, partial curve, poor fit]"
COCCCNC(=S)NNC(=O)c1csc2ccccc12,,"inconclusive [inhibitor, single point]"

SMILES,"activity change, negative = inhibition",Potency
CC(C)C1N=C(c2ccc3c(c2)OCO3)CC(c2ccccc2O)N1 (stereo not drawn),inactive: -13.5%,
CCOc1ccccc1NC(=O)CN1C(=O)COc2ccc(Cl)cc21,,"inconclusive [inhibitor, full curve]"
COC(=O)c1cc(NC(=O)/C=C/c2ccc3c(c2)OCO3)cc(C(=O)OC)c1,,"inconclusive [inhibitor, full curve, poor fit]"
O=c1[nH]ncc(N2CCCCC2)c1Cl,,"inconclusive [inhibitor, partial curve]"
CC(C)CC(C(=O)Nc1oc(-c2ccco2)c(-c2ccco2)c1C#N)N1C(=O)c2ccccc2C1=O (stereo not drawn),,"inconclusive [inhibitor, partial curve, poor fit]"
CCCC(=O)OCC(=O)Nc1cc(Cl)ccc1[N+](=O)[O-],,"inconclusive [inhibitor, full curve, poor fit]"
Cc1cccnc1NC(=O)CNC(=O)C12CC3CC(CC(C3)C1)C2,,"inconclusive [inhibitor, full curve, poor fit]"
NCCCC(=O)N1c2ccccc2Sc2ccc(Cl)cc21,inactive: 0.588%,
CC(Sc1nnc(N)s1)c1ccccc1Cl (stereo not drawn),,"inconclusive [inhibitor, full curve, poor fit]"
Nc1c(C(=O)CCC(=O)O)oc2ccc(Cl)cc12,,"inconclusive [inhibitor, full curve, poor fit]"
Cc1nc2scc(C)n2c(=O)c1S(=O)(=O)NCCc1ccc(Cl)cc1,,"inconclusive [inhibitor, full curve]"
Cc1ccc(NC(=O)COC(=O)c2ccc3c(c2)NC(=O)C2CCCN32)cc1 (stereo not drawn),inactive: 0.108%,
CCOc1c(Br)cc(CNC2CCCCCCC2)cc1OC,,"inconclusive [inhibitor, full curve, poor fit]"
COc1ccc(S(=O)(=O)N2CCC(C(=O)Nc3nnc(C)s3)CC2)cc1OC,,"inconclusive [inhibitor, full curve, poor fit]"
CCc1noc(C)c1C(=O)Nc1nnc(C(CC)CC)s1,,"inconclusive [inhibitor, single point]"
Cc1ccccc1NC(=S)NC(=O)/C=C/c1ccco1,inactive: -3.32%,
C#CCOCCOCCOCCNc1nc(N2CCN(C(=O)C(Cc3ccc(O)cc3)n3cc(C(N)CC(C)C)nn3)CC2)nc(N2CCN(C(=O)C(Cc3cc4ccccc4[nH]3)n3cc(C(N)C(C)CC)nn3)CC2)n1 (stereo not drawn),inactive: 1.92%,
O=C(c1ccccc1)c1ccc2nc[nH]c2c1,inactive: -1.41%,
CCn1ccnc1C(O)c1cccc(OC)c1 (stereo not drawn),,"inconclusive [inhibitor, full curve, poor fit]"
O=C(CSc1nc2c(c(=O)[nH]1)CN(Cc1ccc3c(c1)OCO3)CC2)Nc1ccc(F)c(F)c1,inactive: 24.1%,
O=C(Oc1ccc(=O)n(-c2ccccc2)n1)c1ccc(Cl)cc1,,"inconclusive [inhibitor, partial curve, poor fit]"
CC(C)Oc1ccc(C(=O)NC(=S)N2CCOCC2)cc1,,"inconclusive [inhibitor, full curve]"
